This note sets out measurements from patent US5473056, “E2F-2, a novel mammalian transcription factor” (Merck & Co., Inc., dated 1995).

The test addresses recombinant pRb60 (Homo sapiens (Human), UniProt P06400). Nature of the test: co-immunoprecipitation with anti-pRb monoclonal antibody, anti-GST Western blot. As for the experimental part:
For pRb60 binding assays, 50 µl of normalized lysates were incubated with or without 0.6 µg purified pRb60 in a final volume of 100 µl phosphate-buffered saline-0.1% NP40 for 1.5 hr at 4° C. Where indicated, partially purified GST-E1A was also included in the binding reaction as a competitor. The pRb60 and any associated proteins were then recovered using monoclonal anti-pRb antibody XZ55 (prepared as descibed in G. Hu et al., *Mol. Cell. Biol.*, 11:5792–5799 (1991)), followed by rabbit anti-mouse IgG (Cappel) and Protein A-Sepharose beads (Pharmacia). The beads were washed three times in cold phosphate-buffered saline, and bound proteins were eluted by boiling in SDS-gel loading buffer. Proteins were resolved on a 12% SDS-polyacrylamide gel (Novex), and GST fusion proteins were detected by immunoblot analysis using anti-GST antibody.
Figures 7A, 7B: FIG. 7. Binding of E2F-2 protein to pRb60. Soluble *E. coli* lysates containing the indicated GST fusion protein were incubated in the presence (lanes 2, 4, 5, 7, 8, 10, 11, 13, 14) or absence (lanes 1, 3, 6, 9, 12) of 100 nM recombinant pRb60 and immunoprecipitated with an anti-pRb monoclonal antibody. The immunoprecipitate was analyzed by SDS-PAGE and "Western" blotting with an anti-GST polyclonal antibody. The positions of each GST fusion protein in the "Western" blot is indicated along the right side. […]

B1: GST alone (other)
chain: not shown
For the molecule B1, the binding result is “no binding (tested: 100 nM recombinant pRb60)”.
